The IC50 comes from the fitted curve, where viability falls to half of the control; a fit beyond the top or the lowest dose is shown as a bound at that dose. AUC sums up the same curve from the lowest dose to the 256-fold higher top dose; values near 1 show little effect. Any top dose called inferred was derived from the fitted curves, not read from the paper.
Compound: CCOc1cc2ncc(C#N)c(Nc3ccc(F)c(Cl)c3)c2cc1NC(=O)/C=C/CN(C)C [EKB-569]
Test: Viability of human cancer cell lines after 72 h of drug (GDSC screen)
Conditions: top dose inferred
Protocol: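 Human cancer cell lines in 384-well plates, medium with 10% serum, drug for 72 h over a 256-fold dose range (nine 2-fold or five 4-fold steps up to the top dose). Adherent lines were fixed and stained with the nucleic acid dye Syto60, suspension lines read with resazurin; signal relative to control wells, capped at 0 and 100%. One two-parameter sigmoid per drug and line, fitted in a mixed model over all curves with the slope shared within a line.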

Cell Line	AUC	IC50 [µM]
RMG-I (ovary, adherent, top dose 2.5 µM)	0.781	1.22
RO82-W-1 (thyroid, adherent, top dose 2.5 µM)	0.982	> 2.5
ROS-50 (B-cell leukaemia, suspension, top dose 2.5 µM)	0.947	> 2.5
RPMI-2650 (head and neck, adherent, top dose 2.5 µM)	0.928	> 2.5
RPMI-6666 (Hodgkin lymphoma, suspension, top dose 2.5 µM)	0.693	0.611
RPMI-7951 (melanoma, adherent, top dose 2.5 µM)	0.881	2.49
RPMI-8402 (T-cell lymphoblastic leukaemia, suspension, top dose 20 µM)	0.15	0.134
RPMI-8866 (chronic myeloid leukaemia, suspension, top dose 2.5 µM)	0.988	> 2.5
RS4-11 (leukaemia, suspension, top dose 2.5 µM)	0.62	0.324
RT4 (bladder, adherent, top dose 2.5 µM)	0.955	> 2.5
RT-112 (bladder, adherent, top dose 2.5 µM)	0.984	> 2.5
RVH-421 (melanoma, adherent, top dose 2.5 µM)	0.906	> 2.5
RXF393 (kidney, adherent, top dose 2.5 µM)	0.885	> 2.5
Raji (Burkitt lymphoma, suspension, top dose 2.5 µM)	0.988	> 2.5
Ramos-2G6-4C10 (Burkitt lymphoma, suspension, top dose 2.5 µM)	0.929	> 2.5
SAS (head and neck, adherent, top dose 2.5 µM)	0.782	1.17
SAT (head and neck, adherent, top dose 2.5 µM)	0.749	1.24
SBC-1 (small cell lung carcinoma, suspension, top dose 2.5 µM)	0.989	> 2.5
SBC-3 (small cell lung carcinoma, adherent, top dose 2.5 µM)	0.861	1.81
SBC-5 (small cell lung carcinoma, adherent, top dose 2.5 µM)	0.992	> 2.5
SCC-3 (B-cell lymphoma, suspension, top dose 2.5 µM)	0.9	1.62

Cell Line	AUC	IC50 [µM]
SCC-4 (head and neck, adherent, top dose 2.5 µM)	0.962	> 2.5
SCC-9 (head and neck, adherent, top dose 2.5 µM)	0.415	0.0858
SCC-15 (head and neck, adherent, top dose 2.5 µM)	0.723	0.852
SCC-25 (head and neck, adherent, top dose 2.5 µM)	0.669	0.493
SCH (stomach, adherent, top dose 2.5 µM)	0.983	> 2.5
SF126 (glioma, adherent, top dose 2.5 µM)	0.963	> 2.5
SF268 (glioma, adherent, top dose 2.5 µM)	0.946	> 2.5
SF295 (glioma, adherent, top dose 2.5 µM)	0.972	> 2.5
SF539 (glioma, adherent, top dose 2.5 µM)	0.921	> 2.5
SH-4 (melanoma, adherent, top dose 2.5 µM)	0.919	> 2.5
SHP-77 (small cell lung carcinoma, semi-adherent, top dose 2.5 µM)	0.873	1.96
SIG-M5 (acute myeloid leukaemia, suspension, top dose 2.5 µM)	0.495	0.152
SIMA (neuroblastoma, adherent, top dose 2.5 µM)	0.958	> 2.5
SISO (cervix, adherent, top dose 2.5 µM)	0.936	> 2.5
SJRH30 (rhabdomyosarcoma, adherent, top dose 2.5 µM)	0.941	> 2.5
SJSA-1 (bone, adherent, top dose 2.5 µM)	0.939	> 2.5
SK-CO-1 (large intestine, adherent, top dose 2.5 µM)	0.986	> 2.5
SK-ES-1 (Ewing sarcoma, semi-adherent, top dose 2.5 µM)	0.789	1.18
SK-GT-4 (oesophagus, adherent, top dose 2.5 µM)	0.901	> 2.5
SK-HEP-1 (liver, adherent, top dose 2.5 µM)	0.986	> 2.5
SK-LMS-1 (soft tissue, adherent, top dose 2.5 µM)	0.884	2.48

Cell Line	AUC	IC50 [µM]
SK-LU-1 (lung adenocarcinoma, adherent, top dose 2.5 µM)	0.884	> 2.5
SK-MEL-1 (melanoma, suspension, top dose 2.5 µM)	0.981	> 2.5
SK-MEL-2 (melanoma, adherent, top dose 2.5 µM)	0.98	> 2.5
SK-MEL-3 (melanoma, adherent, top dose 2.5 µM)	0.925	> 2.5
SK-MEL-5 (melanoma, adherent, top dose 2.5 µM)	0.971	> 2.5
SK-MEL-24 (melanoma, adherent, top dose 2.5 µM)	0.983	> 2.5
SK-MEL-28 (melanoma, adherent, top dose 2.5 µM)	0.986	> 2.5
SK-MEL-30 (melanoma, adherent, top dose 2.5 µM)	0.928	> 2.5
SK-MES-1 (lung squamous cell carcinoma, adherent, top dose 2.5 µM)	0.416	0.09
SK-MG-1 (glioma, adherent, top dose 2.5 µM)	0.987	> 2.5
SK-MM-2 (myeloma, suspension, top dose 2.5 µM)	0.987	> 2.5
SK-N-AS (neuroblastoma, adherent, top dose 2.5 µM)	0.927	> 2.5
SK-N-DZ (neuroblastoma, adherent, top dose 2.5 µM)	0.983	> 2.5
SK-N-FI (neuroblastoma, adherent, top dose 2.5 µM)	0.959	> 2.5
SK-N-SH (neuroblastoma, adherent, top dose 2.5 µM)	0.982	> 2.5
SK-OV-3 (ovary, adherent, top dose 2.5 µM)	0.764	1.13
SK-PN-DW (Ewing sarcoma, adherent, top dose 2.5 µM)	0.923	> 2.5
SK-UT-1 (soft tissue, adherent, top dose 2.5 µM)	0.976	> 2.5
SKG-IIIa (cervix, adherent, top dose 2.5 µM)	0.976	> 2.5
SKN (uterus, adherent, top dose 2.5 µM)	0.949	> 2.5
SKN-3 (head and neck, adherent, top dose 2.5 µM)	0.96	> 2.5

Cell Line	AUC	IC50 [µM]
SLVL (B-cell lymphoma, suspension, top dose 2.5 µM)	0.88	> 2.5
SN12C (kidney, adherent, top dose 2.5 µM)	0.954	> 2.5
SNB75 (glioma, adherent, top dose 2.5 µM)	0.96	> 2.5
SNG-M (endometrium, adherent, top dose 2.5 µM)	0.584	0.263
SNU-61 (large intestine, adherent, top dose 2.5 µM)	0.757	1.12
SNU-81 (large intestine, adherent, top dose 2.5 µM)	0.875	> 2.5
SNU-175 (large intestine, suspension, top dose 2.5 µM)	0.837	1.53
SNU-182 (liver, adherent, top dose 2.5 µM)	0.861	2.26
SNU-387 (liver, adherent, top dose 2.5 µM)	0.931	> 2.5
SNU-398 (liver, adherent, top dose 2.5 µM)	0.966	> 2.5
SNU-407 (large intestine, adherent, top dose 2.5 µM)	0.729	0.795
SNU-423 (liver, adherent, top dose 2.5 µM)	0.831	1.97
SNU-449 (liver, adherent, top dose 2.5 µM)	0.758	0.94
SNU-475 (liver, adherent, top dose 2.5 µM)	0.978	> 2.5
SNU-1040 (large intestine, adherent, top dose 2.5 µM)	0.636	0.425
SNU-C1 (large intestine, suspension, top dose 20 µM)	0.944	> 20
SNU-C2B (large intestine, adherent, top dose 20 µM)	0.613	2.83
SNU-C5 (large intestine, adherent, top dose 2.5 µM)	0.974	> 2.5

Source: the supplement of paper PMC4967469
